Data: paper PMC6919601, “Identification of Plasmodium dipeptidyl aminopeptidase allosteric inhibitors by high throughput screening” (PLoS ONE, 2019)
The whole screen tested about 110,000 compounds, of which about 230 (0.21%) showed an effect of 50% or more. Some of the results follow.

The compounds below were run against DPAP1 (Plasmodium falciparum, UniProt Q8IIJ9) (assay: primary screen, percent inhibition; read by cleavage of a fluorogenic dipeptide substrate; higher = more effect of the substance).
Parameters: species or system P. falciparum D10 trophozoite lysates; single well
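Further: 30 min substrate incubation versus DMSO and 10 µM JCP410 controls.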

DPAP1, sequence (Q8IIJ9 whole entry, looked up): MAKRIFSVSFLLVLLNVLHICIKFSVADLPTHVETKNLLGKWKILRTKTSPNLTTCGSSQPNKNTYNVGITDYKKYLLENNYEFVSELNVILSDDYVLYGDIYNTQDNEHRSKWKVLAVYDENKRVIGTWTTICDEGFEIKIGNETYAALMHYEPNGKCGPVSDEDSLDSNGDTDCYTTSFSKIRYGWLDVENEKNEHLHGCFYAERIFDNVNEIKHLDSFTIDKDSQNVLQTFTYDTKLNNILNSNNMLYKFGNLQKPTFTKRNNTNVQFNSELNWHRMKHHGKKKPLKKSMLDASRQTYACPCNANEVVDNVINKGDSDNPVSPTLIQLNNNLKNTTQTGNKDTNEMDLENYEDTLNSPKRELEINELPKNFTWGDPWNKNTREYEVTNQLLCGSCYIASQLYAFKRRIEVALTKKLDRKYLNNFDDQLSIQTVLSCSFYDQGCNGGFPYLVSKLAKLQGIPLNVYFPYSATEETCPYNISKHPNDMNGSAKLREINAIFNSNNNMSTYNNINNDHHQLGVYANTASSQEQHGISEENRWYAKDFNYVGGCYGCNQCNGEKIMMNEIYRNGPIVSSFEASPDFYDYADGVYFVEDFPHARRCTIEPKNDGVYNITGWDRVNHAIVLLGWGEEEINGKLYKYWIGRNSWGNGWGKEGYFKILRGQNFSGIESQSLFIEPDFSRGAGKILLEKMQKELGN

Compound | % Inhibition @ 10 uM [%]
O=[N+]([O-])c1ccc(N2CCN(Cc3ccccc3F)CC2)cc1 | 3.16
O=C(Nc1nccs1)c1cc(S(=O)(=O)N2CCOCC2)c(Cl)cc1Cl | 2.7
O=C(CSc1nnc(-c2ccc(Cl)cc2)o1)Nc1nccs1 | 2.97
CCOC(=O)c1cnc(-c2ccccc2O)nc1Cl | -3.21
OCCn1c(-c2ccc(Cl)cc2)cs/c1=N\c1ccccc1 | 2.69
CCc1cccc(C)c1-n1cccc1/C=C1\C(=N)N2N=CSC2=NC1=O | -5.22
O=C(O)CCC(=O)N1N=C(c2ccccc2)CC1c1ccccc1Cl (centres unmarked) | 4.67
COc1ccc(CCNC(=O)Cn2ncn3c(cc4cc(F)ccc43)c2=O)cc1OC | 4.84
Cc1ccc(-n2nc(C)c3c(C)cc(=O)n(CC(=O)NCc4ccco4)c32)cc1 | 0.0575
COc1ccc(CN2CCC(N3CCCCC3)CC2)cc1OCc1ccccc1 | -6.6
CCOC(=O)N1CCC(N2C(=O)c3ccccc3C2Nc2ccc(Cl)cn2)CC1 (centres unmarked) | -2.83
COCCNC(=O)c1cc(-c2ccc(OC)c(OC)c2)on1 | 9.67
O=C(Cn1ccc2cc(S(=O)(=O)N3CCCC3)ccc21)NCC1CCCO1 (centres unmarked) | 0.00226
COc1ccc(CCNCc2c[nH]c3ccccc23)cc1 | -3.67
COc1ccc(Br)cc1S(=O)(=O)Nc1cccc(-c2cn3ccsc3n2)c1 | 6.29
Cc1ccc(NC(=O)c2ccc(CSc3ncnc4[nH]cnc34)cc2)cc1 | -6.43
CCOC(=O)C1=CN(C)C=C(C(=O)OCC)C1c1ccc2c(c1)OCO2 | -3.23
CCCOc1ccccc1C1C2=C(O)CC(c3ccc4c(c3)OCO4)CC2=NC(C)=C1C(=O)OC (centres unmarked) | 2.7
Cn1c(=O)n(C)c2cc(/C=C3/SC(=O)N(CC(=O)Nc4cccc(Cl)c4)C3=O)ccc21 | 14.3
CC(=O)NCCc1nc2ccccc2n1Cc1ccc(C(C)C)cc1 | 1.12
COc1ccc(-n2nc3c(c2NC(=O)c2cc(C)cc(C)c2)CS(=O)(=O)C3)cc1 | 5.9
O=C(C1=C(O)C(=O)N(Cc2cccnc2)C1c1cccnc1)c1ccco1 (centres unmarked) | 4.11
CCc1ccc(C2CC(=O)N=C(NC(=O)c3ccc(Oc4ccccc4)cc3)N2)cc1 (centres unmarked) | 0.723
N=C(NOC(=O)c1ccc2c(c1)OCO2)c1ccncc1 | -9.83
CCc1ccc(-n2nc3ccc(N)cc3n2)cc1 | 2.38

Compound | % Inhibition @ 10 uM [%]
Cc1onc(-c2ccccc2Cl)c1C(=O)Nc1ccc(F)cc1 | -5.85
CCCCc1ccc(-c2ccc(Br)cc2O)nc1 | -0.807
CN(Cc1ccc([N+](=O)[O-])cc1)C1CCCCC1 | -1.78
CCOC(=O)N1CCN(C(=O)CSc2nc(-c3ccc(C)cc3)cn2-c2ccc(OC)cc2)CC1 | 77.3
CCOc1cc(C(=O)Nc2ccncc2)cc(OCC)c1OCC | 4.12
Cc1cc(Br)ccc1OCC(=O)Nc1ccc(S(N)(=O)=O)cc1 | -6.08
CCCOc1ccc(-c2nonc2NC(=O)C(C)Oc2ccccc2OC)cc1OCCC (centres unmarked) | -3.24
Cc1cc(NCc2ccccc2)nc2cc(O)ccc12 | 2.34
CC(C)CCNC(=O)C1CCCN(S(=O)(=O)N2CCOCC2)C1 (centres unmarked) | 0.745
CC(C)CSC1=NSC2=NC(=O)/C(=C\c3ccc[nH]3)C(=N)N12 | 2.59
N#Cc1ccccc1Sc1ccccc1C(=O)N1CCOCC1 | 0.392
Cc1ccc(N)cc1S(=O)(=O)NCCO | -8.03
O=C1c2ccccc2C(Nc2ccc(Cl)cn2)N1c1ccccn1 (centres unmarked) | -1.03
O=C1OC(c2ccc(Br)cc2)=N/C1=C\c1c(F)cccc1Cl | -0.441
O=C(COc1ccc(Cl)cc1)Nc1nc(-c2ccccc2)cs1 | 3.55
COCc1cc(C)nc(SCC(=O)N2CCCCC2)c1C#N | -2.54
COc1cccc(N(CC(=O)Nc2cc(C)cc(C)c2)S(=O)(=O)c2ccccc2)c1 | 2.33
CC12CCC(C(=O)Nc3c(Cl)cccc3Cl)(C(=O)C1=O)C2(C)C (centres unmarked) | -3.08
O=C(CCC1COc2ccccc2O1)Nc1ncc(C(F)(F)F)cc1Cl (centres unmarked) | 4.58
Cc1ccc(S(=O)(=O)NCCc2cc3c(C)ccc(C)c3nc2O)cc1 | 2.54
O=C(Cn1ncn2c(cc3ccccc32)c1=O)NCc1ccccc1 | -3.47
CCn1nc(C)c(NC(=O)c2ccc(Cl)cc2)c1C | 11.9
Cn1c(C2=C(N)N(Cc3ccccc3Cl)CC2=O)nc2ccccc21 | 0.486
CCOC(=O)N1CCN(c2cc(C)nc3nc(-c4ccc(OC)cc4)nn23)CC1 | 0.758
CC(=O)c1ccc(NC(=O)C2C3CC/C=C\CCC32)cc1 (centres unmarked) | 3.69
